Measured values taken from the supplement of paper PMC8047034.
Structures can show the parent of a compound that is named as a salt. This is one part of the list. Many values rest on one well or one pass, so single values are uncertain.

Assays:
OVCAR4 = assay: log2 surviving fraction (library drug vs vehicle, or drug + carboplatin vs carboplatin alone; relative to plate median); ovarian cancer lines: OVCAR4 is platinum-sensitive and Ov4Carbo platinum-resistant; higher = more cell survival; conditions: library drug concentration 10 µM, 7 days
Ov4Carbo = assay: as above; conditions: library drug concentration 10 µM, 7 days

Row | Structure (SMILES) | log2 surviving fraction (OVCAR4; carboplatin co-treatment 0 µM) | log2 surviving fraction (OVCAR4; carboplatin co-treatment 5 µM) | log2 surviving fraction (Ov4Carbo; carboplatin co-treatment 0 µM) | log2 surviving fraction (Ov4Carbo; carboplatin co-treatment 5 µM)
1 | O=S(=O)(O)Oc1ccc(C(c2ccc(OS(=O)(=O)O)cc2)c2ccccn2)cc1 [Sodium Picosulfate] | 0.361 | 0.576 | 0.512 | 0.478
2 | CN(C)c1nc(N(C)C)nc(N(C)C)n1 [Altretamine (Hexalen)] | -1.16 | 0.407 | -0.0282 | 0.165
3 | CC[C@H]1OC(=O)[C@H](C)[C@@H](O[C@H]2C[C@@](C)(OC)[C@@H](O)[C@H](C)O2)[C@H](C)[C@@H](O[C@@H]2O[C@H](C)C[C@H](N(C)C)[C@H]2O)[C@](C)(O)C[C@@H](C)C(=O)[C@H](C)[C@@H](O)[C@]1(C)O [Erythromycin (E-Mycin)] | 0.357 | 0.184 | -1.43 | -0.276
4 | O=C(C[S+]([O-])Cc1ccco1)NC/C=C\COc1cc(CN2CCCCC2)ccn1 (stereo not drawn) [Lafutidine] | 1.64 | -0.989 | 1.68 | 0.903
5 | CCCSc1ccc2[nH]c(NC(=O)OC)nc2c1 [Albendazole (Albenza)] | -8.53 | -5.02 | -5.02 | -5.11
6 | CC(C)/N=c1\cc2n(-c3ccc(Cl)cc3)c3ccccc3nc-2cc1Nc1ccc(Cl)cc1 [Clofazimine] | -1.25 | -1.63 | -1.38 | -0.714
7 | Cc1c(Nc2ncccc2C(=O)O)cccc1C(F)(F)F [Flunixin meglumin] | 2.2 | 0.067 | 0.863 | 2.49
8 | CC(=O)NS(=O)(=O)c1ccc(NC(=O)c2ccccc2C(=O)O)cc1 [Phthalylsulfacetamide] | -0.475 | 0.31 | 0.591 | 1.04
9 | CC(C)(Oc1ccc(CCNC(=O)c2ccc(Cl)cc2)cc1)C(=O)O [Bezafibrate] | 0.276 | 0.145 | -0.28 | 0.289
10 | COC(=O)N[C@H](C(=O)N[C@@H](Cc1ccccc1)[C@@H](O)CN(Cc1ccc(-c2ccccn2)cc1)NC(=O)[C@@H](NC(=O)OC)C(C)(C)C)C(C)(C)C [Atazanavir sulfate] | -3.63 | -0.406 | -0.476 | -1.09
11 | Cc1c(-c2ccc(O)cc2)n(Cc2ccc(OCCN3CCCCCC3)cc2)c2ccc(O)cc12 [Bazedoxifene HCl] | -7.16 | -6.06 | -6.47 | -6.71
12 | CO[C@H]1C(=O)[C@]2(C)[C@@H](OC)C[C@H]3OC[C@@]3(OC(C)=O)[C@H]2[C@H](OC(=O)c2ccccc2)[C@]2(O)C[C@H](OC(=O)[C@H](O)[C@@H](NC(=O)OC(C)(C)C)c3ccccc3)C(C)=C1C2(C)C [Cabazitaxel (Jevtana)] | -6.19 | -5.77 | -5.93 | -4.89
13 | CCOC(=O)CCC(=O)O[C@H]1[C@H](O[C@@H]2[C@@H](C)[C@H](O[C@H]3C[C@@](C)(OC)[C@@H](O)[C@H](C)O3)[C@@H](C)C(=O)O[C@H](CC)[C@@](C)(O)[C@H](O)[C@@H](C)C(=O)[C@H](C)C[C@@]2(C)O)O[C@H](C)C[C@@H]1N(C)C [Erythromycin Ethylsuccinate] | -0.732 | 0.598 | -0.246 | 0.544
14 | O[C@@H]1CO[C@H]2[C@@H]1OC[C@@H]2O [Isosorbide] | 0.459 | 0.282 | 0.344 | -1.35
15 | c1ccc2nc(N3CCNCC3)ccc2c1 [Quipazine Maleate] | -0.297 | -1.43 | 0.0734 | 0.33
16 | NNC(=O)c1ccncc1.Nc1ccc(C(=O)O)c(O)c1 [Pasiniazid] | -0.333 | 1.64 | 0.209 | -1.95
17 | Nc1nc(CC(=O)Nc2ccc(CCNC[C@H](O)c3ccccc3)cc2)cs1 [Mirabegron (YM178)] | 0.172 | 0.924 | 0.376 | 1.47
18 | CCc1nc(N)nc(N)c1-c1ccc(Cl)cc1 [Pyrimethamine] | -1.12 | -1.22 | -0.598 | -9.15
19 | CC/C(=C(\c1ccccc1)c1ccc(OCCN(C)C)cc1)c1ccccc1 [Tamoxifen Citrate (Nolvadex)] | -3.1 | -2.69 | -3.73 | -3.03
20 | COCCOC(=O)C1=C(C)NC(C)=C(C(=O)OC/C=C/c2ccccc2)C1c1cccc([N+](=O)[O-])c1 (stereo not drawn) [Cilnidipine] | -2.42 | -2.13 | -2.8 | -2.51
21 | CCOC(=O)[C@H](CCc1ccccc1)N[C@H]1CCCN2CCC[C@@H](C(=O)O)N2C1=O [Cilazapril monohydrate (Inhibace)] | 0.674 | 0.365 | 0.644 | 0.305
22 | CC(NC(C)(C)C)C(=O)c1cccc(Cl)c1 (stereo not drawn) [Amfebutamone (Bupropion)] | 1.1 | -0.0759 | 2.07 | 1.32
